Measured values taken from PubChem BioAssay AID761 (NMMLSC, 2007).
The campaign covered roughly 190,000 compounds. About 400 (0.21%) were called active. The shares of active, inactive and inconclusive entries below differ from those in the screen.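 The calls were made as follows: active = percent activity GTP binding at least 20 points away from the 100% baseline, either down as inhibitor or up as activator; inconclusive = compound flagged as likely green fluorescent from well-wide comparison; inactive = the rest.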

molecular target: Cell division control protein 42 homolog (Homo sapiens) (UniProt P60953); assay: wildtype Cdc42 fluorescent GTP binding changes, either direction – biochemical, multiplex bead flow cytometry, Bodipy-GTP, primary screen (AID 761); details: GST-Cdc42 beads, at 10 µM, actives lie on both sides;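 also: median bead fluorescence of bound Bodipy-FL-GTP at 100 nM; 0% = excess unlabeled GTP control and 100% = no compound control; below 100% means less GTP binding so inhibitor and above means activator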
Sequence of UniProt P60953 (P60953 whole entry, looked up): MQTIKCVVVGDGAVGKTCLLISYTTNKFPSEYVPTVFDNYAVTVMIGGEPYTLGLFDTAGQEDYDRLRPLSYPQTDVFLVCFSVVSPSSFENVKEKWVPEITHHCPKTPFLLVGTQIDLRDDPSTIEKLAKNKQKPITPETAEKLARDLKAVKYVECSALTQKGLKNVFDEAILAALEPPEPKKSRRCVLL

| Compound | percent activity (GTP binding) |
| --- | --- |
| COc1cccc(C(=O)N2CCN(C3CCC(c4ccccc4)CC3)CC2)c1OC (stereo not drawn) | inconclusive: 116% |
| CCCN(Cc1ccccc1)C(=S)Nc1ccc(C(C)=O)cc1 | inconclusive: 95% |
| COc1cccc(NC(=O)CN(c2ccc3c(c2)OCO3)S(C)(=O)=O)c1 | inconclusive: 92% |
| C=CCn1c(CSc2nc3ccccc3s2)n[nH]c1=S | inconclusive: 104% |
| COc1ccc(-n2c(=S)[nH]c3cc(C(=O)Nc4cc(OC)c(OC)c(OC)c4)ccc3c2=O)c(OC)c1 | inconclusive: 86% |
| COc1ccc(CNCC(=O)Nc2ccccc2-n2cccc2)cc1 | inactive: 106% |
| O=C(NCc1ccccn1)C1CC(c2ccc(Cl)c(Cl)c2)=NO1 (stereo not drawn) | inconclusive: 104% |
| COc1cc2nc(C3CCC3)n(NC(=O)COc3ccccc3)c(=O)c2cc1OC | inconclusive: 92% |
| O=C(Cn1cnnn1)Nc1cccc(S(=O)(=O)N2CCCCC2)c1 | inconclusive: 129% |
| COc1ccc(C(=O)N2CCCC(CCC(=O)NCc3ccc(F)c(F)c3)C2)o1 (stereo not drawn) | inconclusive: 109% |
| Cc1ccc(C)n1N1C(=O)/C(=C\c2ccc(Cl)cc2)SC1=S | inactive: 92% |
| COc1cc(OC)c(C(=O)OCC(=O)NCCc2ccccc2)cc1OC | inactive: 96% |
| CCOC(=O)c1nc(Nc2ccc(C(C)=O)cc2)c2ccccc2n1 | inactive: 83% |
| COc1cccc(/C=N/Nc2ncnc3c2ncn3Cc2ccccc2)c1O | inconclusive: 88% |
| COC(=O)c1c(NC(=O)C2C3C=CC(CC3)C2C(=O)O)sc(C)c1C (stereo not drawn) | inconclusive: 86% |
| CSCCC(NC(=O)/C(=C\c1ccc(Cl)cc1)NC(=O)c1ccccc1)C(=O)O (stereo not drawn) | inactive: 94% |
| CCOC(=O)CSc1nc2ccccc2n1CC(=O)N(C(C)C)C(C)C | inconclusive: 100% |
| Cc1nc2nc(SCC(=O)O)nn2c(C)c1Cc1c(F)cccc1Cl | active: 72% |
| CN(/N=C/C=C/c1ccccc1)C1=NS(=O)(=O)c2ccccc21 | active: 74% |
| CC1=CC(c2ccc(Cl)cc2)n2nc(NS(=O)(=O)c3ccc(C)cc3)nc2N1 (stereo not drawn) | inconclusive: 91% |

| Compound | percent activity (GTP binding) |
| --- | --- |
| O=S(=O)(Nc1ccc(Cl)nn1)c1ccccc1 | inconclusive: 95% |
| N#CC1=C(N)N(c2ccccc2C#N)C2=C(C(=O)CCC2)C1c1ccsc1 (stereo not drawn) | inconclusive: 106% |
| Cc1ccc(NCc2nnc(SCC(=O)Nc3nnc(C)s3)n2C)cc1 | inconclusive: 91% |
| COc1cc2nc(/C=C/c3cc(OC)c(OC)c(OC)c3)sc2cc1SC | inconclusive: 94% |
| Cc1cc2c(c(Sc3ccccc3)n1)C(=O)OC2 | inconclusive: 109% |
| CCN(C(=O)COC(=O)/C=C/c1nc2ccccc2s1)C1CCS(=O)(=O)C1 (stereo not drawn) | inactive: 93% |
| c1ccc(-n2nnnc2OCCOc2nnnn2-c2ccccc2)cc1 | inconclusive: 99% |
| CC(=O)Nc1nc(CC(C)C)cc2c1c(=O)oc1ccccc12 | inconclusive: 90% |
| O=C(Nc1nc(-c2cccnc2)cs1)c1ccccc1F | inconclusive: 96% |
| O=C(C(=O)N1CCCC1CO)N1CCCC1CO (stereo not drawn) | inactive: 96% |
| O=C(NC(=S)Nc1ccccc1N1CCOCC1)c1sc2ccccc2c1Cl | inconclusive: 106% |
| CC1(C)CC(=O)C/C(=N\NC(=O)c2cccs2)C1 | inconclusive: 106% |
| Cc1cccc2cc(C#N)c(NCCNS(=O)(=O)c3ccc4c(c3)OCCO4)nc12 | inconclusive: 93% |
| O=C(c1ccco1)N1CCN(C(=O)c2cnn3c2NC(c2cccs2)CC3C(F)(F)F)CC1 (stereo not drawn) | inconclusive: 104% |
| CC(C)NC(=O)CN(c1cccc([N+](=O)[O-])c1)S(=O)(=O)c1ccccc1 | inconclusive: 92% |
| CCOC(=O)N1CCC(NC(=O)c2cc3c(-c4ccc(OC)c(OC)c4)nn(C)c3s2)CC1 | inconclusive: 87% |
| CCOc1ccc(C(C(=O)Nc2ccc(F)cc2)N(C(=O)Cn2nnc3ccccc32)C2CC2)cc1 (stereo not drawn) | inconclusive: 103% |
| COc1cc(C)c(S(=O)(=O)N2CCN(C)CC2)cc1C | inconclusive: 105% |
| O=C(CCCN1C(=O)c2cccc3cccc(c23)C1=O)N1CCN(c2ccc(F)cc2)CC1 | inconclusive: 96% |
| COc1ccc2cc3cc(C(=O)NCCCN4CCOCC4)oc3nc2c1 | inconclusive: 94% |

| Compound | percent activity (GTP binding) |
| --- | --- |
| Cn1c(N2CCN(c3ccccn3)CC2)nc2c1c(=O)n(Cc1ccc(Cl)cc1)c(=O)n2C | inconclusive: 93% |
| CCc1nnc(NC(=O)c2cc(S(=O)(=O)N3CCOCC3)ccc2N2CCCCC2)s1 | inconclusive: 401% |
| COc1ccc(-c2noc(CCC(=O)NCC3CCN(Cc4cccc(C)c4)CC3)n2)cc1 | inconclusive: 107% |
| CC(C)(C)C(=O)c1sc2nc(-c3cccs3)cc(C(F)(F)F)c2c1N | inconclusive: 131% |
| O=C(O)C1Nc2c(O)cc(Cl)c([N+](=O)[O-])c2C2C=CCC12 (stereo not drawn) | inconclusive: 86% |
| O=C(CN1CC(=O)Oc2ccccc21)OCC(=O)c1cccc(Br)c1 | inconclusive: 105% |
| O=C(NCc1ccc(C(=O)O)cc1)OCc1ccccc1 | inactive: 93% |
| COC(=O)c1ccccc1NC(=O)c1ccc(COc2cc(C)cc(C)c2)o1 | inconclusive: 99% |
| COc1ccc(-c2cc(C#N)nc(N3CCN(C)CC3)n2)cc1 | inactive: 102% |
| CN1CCN(S(=O)(=O)c2cccc(C(=O)NCc3ccccc3Cl)c2)CC1 | inactive: 96% |
| CN(CC(=O)O)S(=O)(=O)c1cccs1 | inconclusive: 107% |
| Cc1ccc(NC(=O)CN2C(=O)N/C(=C/c3ccc(C)o3)C2=O)cc1 | inconclusive: 114% |
| O=C(c1cc(COc2ccc(F)cc2F)on1)N1CCSCC1 | inactive: 97% |
| CCCCOCC1CC(CC#CCN2CCCCC2)C(=O)O1 (stereo not drawn) | inconclusive: 82% |
| CCOc1ccc(C(=S)N2CCOCC2)cc1OC | inconclusive: 102% |
| CC1Cc2nc(SCC(=O)Nc3ccc(F)cc3)n(C)c(=O)c2S1 (stereo not drawn) | inconclusive: 92% |
| CCOc1ccc(S(=O)(=O)Nc2ccc(O)c(Sc3ncn[nH]3)c2)cc1 | inactive: 98% |
| OC(c1ccccc1)c1nccn1Cc1ccccc1 (stereo not drawn) | inconclusive: 104% |
